Data as given in the BET-seq Pho4 binding data (Le et al. 2018).
The other results are listed elsewhere or left out. Values were computed here from the reads of four pooled replicates and scatter widely.

target: T1, Pho4 (S. cerevisiae) (UniProt P07270); test: relative binding free energy (BET-seq); higher = weaker binding; conditions: reference: library average
T1 sequence: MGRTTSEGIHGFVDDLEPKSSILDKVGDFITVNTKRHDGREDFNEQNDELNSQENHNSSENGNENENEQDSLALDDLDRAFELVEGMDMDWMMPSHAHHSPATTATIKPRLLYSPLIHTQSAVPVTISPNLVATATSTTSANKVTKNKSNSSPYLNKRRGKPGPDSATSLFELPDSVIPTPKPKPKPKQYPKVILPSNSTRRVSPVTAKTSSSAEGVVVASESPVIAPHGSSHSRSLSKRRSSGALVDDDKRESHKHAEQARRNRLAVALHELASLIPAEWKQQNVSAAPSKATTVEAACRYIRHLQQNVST

Sequence | relative binding free energy [kcal/mol]
ACGGTCACGTGAAGTT | 0.28
TTTGTCACGTGTTTTA | 0.08
GGTTACACGTGATTTT | 0.36
CGTGTCACGTGTTAAA | 0.11
CAGTTCACGTGTTGGT | 0.35
TAGGGCACGTGCAGTG | -0.17
TTAGGCACGTGATTTC | -0.05
TTTCGCACGTGAGTAA | 0.05
GCAGGCACGTGTTGGC | -0.04
ATAGTCACGTGGGGTT | -0.01
ATTCTCACGTGTGATG | 0.27
GTTGCCACGTGGCGGG | -0.07
ACTGACACGTGGGTTG | -0.07
AGGGTCACGTGGATAA | 0.1
TACGGCACGTGTGGCG | -0.06
TCGAGCACGTGTGTCG | 0.03
TTGATCACGTGATAAT | 0.26
AGATGCACGTGGGGTA | -0.04
CTGGCCACGTGTGTAG | 0.06
TTTGGCACGTGGGATT | -0.07
ATTAGCACGTGATGCT | 0.09
TCTCGCACGTGGTTTT | -0.06
GATATCACGTGTTTCT | 0.26
TGGATCACGTGATTGG | 0.3
GTGAACACGTGAAGGT | 0.26

Sequence | relative binding free energy [kcal/mol]
TAATGCACGTGTTTTA | 0.02
TGGTACACGTGGCAAG | -0.01
CGCGTCACGTGGTAGT | 0.04
TCTTTCACGTGGGCGG | 0.13
ATTCGCACGTGGGGGT | -0.1
TGTGGCACGTGACATA | -0.1
TGTTGCACGTGCTTTC | -0.01
TAGATCACGTGGCGGT | 0.11
AAGGTCACGTGTGGAA | 0.15
ATATTCACGTGGCTGT | 0.11
TACTGCACGTGTAAGT | 0.19
AAGGGCACGTGTACGT | -0.05
CGTGTCACGTGTTAAG | 0.01
CATAACACGTGGTGTG | -0.14
AAAGGCACGTGCGGGT | -0.28
GGTGTCACGTGGCTAG | 0.1
TTGGGCACGTGTGGCC | 0.03
TGTGGCACGTGTCGGT | 0
GGTTGCACGTGGGTGT | -0.04
CCGTGCACGTGCGGGT | -0.02
TTTTGCACGTGGTTGA | -0.06
AAAGGCACGTGGGTGG | -0.16
GGGAACACGTGATTTT | 0.23
AGTGGCACGTGTTCTA | -0.11
TTATCCACGTGTGTTT | 0.03

Sequence | relative binding free energy [kcal/mol]
GTAGGCACGTGTGCGT | -0.16
GTTTACACGTGTGATG | 0.3
GAATACACGTGTATTT | 0.32
AGGGTCACGTGGTAAC | 0.22
ATTAACACGTGTTGAA | -0.05
TATTACACGTGGGTAT | -0.13
AATTACACGTGGACGG | 0.29
ATTGGCACGTGCCTTG | -0.07
GAATTCACGTGTGGCT | 0.31
GGGCGCACGTGCGGTT | -0.04
GAAGCCACGTGGGTGG | -0.09
ATTCTCACGTGTGCGG | 0.17
CAGGTCACGTGGCGAG | 0.16
ATATACACGTGGTGAG | 0.07
AATGGCACGTGAGGCT | 0.16
TGGGGCACGTGAACTT | 0.09
TTGGCCACGTGGGGTC | -0.23
TTTGGCACGTGTAGCT | 0
CTGCGCACGTGTTGGG | -0.23
TATGGCACGTGGGCAA | -0.19
TTTTACACGTGGGGAG | 0.09
GCCGTCACGTGTGGGG | 0.11
GAGTTCACGTGGGATA | 0.31
CTATTCACGTGAGAAT | 0.52
CTTGACACGTGGTGGT | -0.01

Sequence | relative binding free energy [kcal/mol]
TTGCACACGTGGTGTC | 0.03
ATTCACACGTGTTTTG | -0.06
TTGAGCACGTGTAAAG | 0
TAAGGCACGTGCTGTG | -0.07
TGGCTCACGTGTGACT | 0.26
GGTGTCACGTGTGCAT | 0.2
TGCTACACGTGGTGAA | 0.09
TATGGCACGTGTTCAG | -0.08
GTGGGCACGTGGGCAG | -0.19
CGTATCACGTGGGGGA | 0.06
TTATTCACGTGGATTG | 0.22
AATGTCACGTGGGTAC | -0.07
TGTTTCACGTGCTTCT | 0.21
CGTACCACGTGTGGGG | -0.17
AAGAACACGTGTGAGG | 0.21
ATGTACACGTGAGAGA | 0.39
GTTAACACGTGTGTAG | 0.12
AGAGGCACGTGAGAGA | 0.14
TGGATCACGTGCATGG | 0.1
ATGGACACGTGGGGAG | -0.12
GGATTCACGTGGCCGG | 0.24
AAGGTCACGTGAGTGG | 0.3
TGGGCCACGTGTATAT | -0.01
TTATACACGTGGTATA | -0.09
AAGGTCACGTGTTTTC | 0.03

Sequence | relative binding free energy [kcal/mol]
TGTCTCACGTGTTTGT | 0.28
AGTTGCACGTGTCGAG | 0.03
GAATACACGTGCTGGT | 0.2
GTAGCCACGTGGGTTT | -0.16
ACTGACACGTGTTGTG | 0.11
CTGGTCACGTGGCCGG | 0
GGTAACACGTGCGTTG | 0.05
ATTGTCACGTGAATAG | 0.31
TCGGTCACGTGGTGCT | -0.22
CGGGACACGTGAGTTG | 0.18
TCTTACACGTGGTAAG | 0.16
GGCGTCACGTGAGGCT | 0.23
TGGGTCACGTGCTGCA | 0.19
GTTGCCACGTGAATTT | 0.35
ATATACACGTGTAGAG | 0.02
TTTATCACGTGGCGTA | -0.04
GGGTACACGTGGCTAG | 0.1
TATAGCACGTGTGTGA | -0.02
ATTTGCACGTGGCTGG | -0.09
GGCGTCACGTGGTGTG | 0.13
AAATGCACGTGGCGGG | -0.18
TTGCGCACGTGTGGAA | 0.02
GTTCCCACGTGATGGT | 0.16
CGTAACACGTGGGGGG | -0.15
TAGGGCACGTGCGTGG | -0.16

Sequence | relative binding free energy [kcal/mol]
CTCGACACGTGGGTGG | -0.17
TGAGTCACGTGTCCGG | 0.2
GTAATCACGTGTTTTC | 0.21
CTTGTCACGTGGCGGA | 0.05
GGTGCCACGTGTGTAC | 0.03
AGGTTCACGTGAGGAT | 0.36
GGATGCACGTGTATTG | 0
AGAAGCACGTGTTGAT | 0.03
TGTGTCACGTGGAGCT | -0.05
TGTTTCACGTGCGTCT | 0.31
TTTTTCACGTGCATGG | 0.3
TGGAGCACGTGAGCGT | 0.21
GGTTACACGTGCTGGT | 0.08
GAGGGCACGTGGGAGC | -0.29
GAGATCACGTGGGAAT | 0.26
GGGCACACGTGGTTGA | 0.09
GTAGTCACGTGAGTTA | 0.31
AGTTTCACGTGGGCTC | 0.16
CGTGGCACGTGTGCGG | -0.11
GGTGTCACGTGGTCGG | 0.2
AGTTCCACGTGGGCTT | 0.05
